Our source for the self-cleavage values is the RNAGym collection of RNA variant scans (doi:10.1093/nar/gkz1192).

The labels stand for the following.
B1: CPEB3 Ribozyme (parent)
chain: UAACAGGGGGCCACAGCAGAAGCGUUCACGUCGCAGCCCCUGUCAGAUUCUGGUGAAUCUGCGAAUUCUGCUGUAUAUCUC

The source gives no read counts; variants with many changes may rest on few reads.

The variants in this series derive from B1. Put plainly: self-cleavage, relative activity (ratio to wild type); higher = more cleavage; in vitro, sequencing. The method in brief: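 Barcoded CPEB3 ribozyme mutants, produced by rounds of error-prone PCR, self-cleaved while being transcribed with T7 RNA polymerase for 5 hours at 37°C and during a subsequent 15 min DNase I step before EDTA was added. Sequencing of template-switched cDNA on Illumina gave cleaved and total reads, and DNA sequencing assigned barcodes to variants. Each variant's relative activity is its cleaved/total read fraction divided by the unmutated ribozyme's fraction, averaged across three batches. A variant needed a minimum of 5 reads.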
Take C23G U49C U54C G55U A56G: the self-cleavage turned out to be 0.06.
The same measure for A21G U69A A77U: 0.5.
Turning to G22A A47G U51A U60C U72C U76C, the self-cleavage turned out to be 0.08.
As for G22A U43A U78A U80C, the figure is 0.26; as for A21U C38U G46C A47G C62A, 0.09.
The same measure for A21U A47U U51A A64G: 0.06.
Regarding A21U U25A C34A U43C A56U, the self-cleavage is 0.14.
Take G22U A28U U54G U72C A77U: the self-cleavage was found to be 0.07.
As for G22A A64G U67C U69A U80A, the figure is 0.04; as for C23U A45U A47G U72G, 0.1.
As for C23A G33A U43C U69C, the figure is 0.12.
The same measure for A21U U41C A57C: 0.09; for G22A U26A A56G U69A: 0.16.
Consider C23G U49C A57G U69C U78C, for which the self-cleavage was 0.06.
As for C23U G24A U25C C27A U41A A65G, the figure is 0.09; as for C23U G61C A65G U78C, 0.08; as for A21U A45G A57G U58G, 0.04.
The same measure for G22A U31C A45G U51A: 0.18.
The same measure for C23A U43C U48C U54C: 0.31.
Regarding C23U U26A U41C A45U U49A, the self-cleavage was found to be 0.1.
The same measure for A21U A57G U80C: 0.57.
As for G22U U51C A57U A64U, the figure is 0.11; as for A21U U43A U54A C68A, 0.23; as for G22A U26C U43C A45G, 0.15.
The same measure for C23U A28G A57G U72A: 0.08; for C23U U26C U31C A35G U41C A45G U80C: 0.03; for G22A C50U U60A G73A: 0.12.
Regarding A21G U67C U72A, the self-cleavage is 0.28.
The same measure for A21G U69C U74C: 0.26; for A21U U25C U69C: 0.12; for C23G A35U U69A U78C: 0.05.
The same measure for A21U U25C A56G: 0.21; for A21U U31A A47G U54C C68A: 0.11; for C23G U25G C40A: 0.08.
As for A21U U51C A65G, the self-cleavage turned out to be 0.1.
Regarding G22U G42U U60C U78A, the self-cleavage is 0.04.
The same measure for G22A A56U U60C G61A: 0.06; for A21U U31C A45G U54C G63A: 0.1.
As for C23A A28G U41A A56G U72G, the figure is 0.53; as for C23A G24U U51A A56G, 0.08.
As for C23U G55A U58C, the figure is 0.08; as for G22A C32U C40A A65G, 0.28; as for C23A A35U U72A, 0.06.
With C23A U49C A56G U67C U78C, the self-cleavage was determined as 0.06.
The same measure for A21U G24A A57G U66A: 0.08; for A21U U41A U43C U72C: 0.22; for G22C U43A U60C: 0.13.
As for A21U A28C U41G A56G U60A U80C, the figure is 0.23; as for A21U G52A U67C, 0.13; as for G22A U26A C32A U41G U60A A65G, 0.13.
With A21U U41A U74C, the self-cleavage came out at 0.24.
Take C23G A28G U31C U51A C62U U74A U78C: the self-cleavage was determined as 0.15.
As for C23U A35G U67C, the figure is 0.13.
As for G22C U54C G55A U72C, the figure is 0.08.
As for C23U A57G U66C U74C, the figure is 0.3; as for A21G U58C C71G U72C, 0.14; as for G22A U25C U67C, 0.37.
For A21U U43C A57G U78C, the self-cleavage is 0.12.
With C23G U25C U41C U54C, the self-cleavage came out at 0.12.
Regarding A21G U67A U80C, the self-cleavage is 0.21.
As for A21G U60C A77G, the figure is 0.26.
As for A21G U60C A77U, the figure is 0.24; as for A21U A28G U74A U78C, 0.2.
As for G22A A56U U66A, the figure is 0.1.
Take C23A U25C U41A U67A A75U: the self-cleavage is 0.13.
As for C23U U31C A35C, the figure is 0.14; as for C23U C50A G53A G70A U72G, 0.07.
As for C23U A35G U72C, the figure is 1.09.
Turning to A21U A45U U60G, the self-cleavage came out at 0.14.
As for C23U A45U U67A U69C U78C, the figure is 0.06; as for C23U U25A U26A U43C U60A U76C, 0.06.
The same measure for C23U U41A C44U A64G A65G: 0.11; for A21U U60A A65G U67C U80C: 0.1.
The same measure for G22U A35G C62A: 0.13; for C23A A56G A75U: 0.19; for G22C A56U A65G: 0.14.
Take G22U U51C U69C A77G U78C: the self-cleavage turned out to be 0.09.
For the variant C23A U41A A45G U60A, the self-cleavage was found to be 0.24.
Consider A21U G52U U58C A65G U80A, for which the self-cleavage was 0.09.
For A21U U26C A35U A45G, the self-cleavage amounted to 0.06.
As for A21U U43A G73U, the figure is 0.99; as for C23A C39U U72A, 0.11.
As for G22A U26C U31A U54C, the figure is 0.22; as for C23A A45G A56U U60C, 0.05; as for C23G U26C A56U G70A, 0.14.
The same measure for C23A U51A U72C: 0.24; for C23G U25C U54C U78C: 0.11.
For G22C A45G U78C, the self-cleavage came out at 0.19.
The same measure for C23U C34U A35G A56U U72A: 0.05; for A21U C32U A77G: 0.34.
Turning to G22C U49C A64U U66C, the self-cleavage was 0.15.
The same measure for C23A A57G A75G: 0.12; for G22A A45G U67C U69A: 0.17; for C23G A35U A45G U48C U60C U67A: 0.24.
For G22A U48C U69A, the self-cleavage was 0.32.
The same measure for C23U U26C U41C: 0.16; for A21U U26A U78A: 0.3.
As for C23A U26C U51A A56G, the figure is 0.12; as for A21U G33A U49C U72C, 0.08.
The same measure for C23U C32G C38A U51C C59U: 0.05; for C23G U25C C38A U43A U49A U66A: 0.04; for A21U A56U U60A U80A: 0.13.
As to A21U C29U A65G U78C, the self-cleavage was 0.03.
The same measure for C23U U31A U41C A47C U51G U60C U69C: 0.05; for C23U A45G U48A U58C U78C: 0.06; for A21U U43C U78C: 0.2.
The same measure for C23U A35U U69A: 0.06.
As for A21U U26C A56G U80A, the self-cleavage came to 0.18.
The same measure for C23U A35U U60C A75U: 0.1; for A21U C32U A35G U58C: 0.1.
As for C23G U31C A77G, the figure is 0.07; as for A21G U60C U69G, 0.19; as for A21U A28G U31A, 0.09.
As for G22A U31C U41G U60C, the figure is 0.1.
In the case of A21U U26C U72A U76C, the self-cleavage came to 0.09.
Consider A21U U41A A57G U69C U80G, for which the self-cleavage came out at 0.13.
As for G22U U58C U66C U80A, the figure is 0.36.
As for G22C U41A U60C U72C, the figure is 0.13; as for C23U U25C U26C, 0.12; as for A21U U26C U31C U60A U69A A75G, 0.3.
As for C23A A28G A45G, the figure is 0.04.
Regarding C23U A64G U67A U69C U72A U74C, the self-cleavage worked out at 0.08.
As for A21U C23U U26C A47G, the self-cleavage amounted to 0.16.
The same measure for A21U G30U U51C U67A A75G U76A: 0.11; for G22C U26C A28U C34G: 0.29; for C23U C50G A64C: 0.13.
The same measure for A21U U69A U72C: 0.41; for C23G G30A G63C: 0.07; for C23U A56G A57G U69C: 0.13.
Turning to C23G U26A U54C U60A U69G, the self-cleavage came out at 0.04.
The same measure for C23A U31C U48C U51C: 0.09.
G22C U25C A75G: the self-cleavage stood at 0.07.
As for A21U U26C U80C, the figure is 0.04; as for C23U U25C U48C U58C, 0.19; as for A21U A28G U60C, 0.08.
The same measure for C23U U26C A56G: 0.17; for G22A U25C U26C U60C: 0.36.
As for C23A U26C A45C, the figure is 0.21.
For C23A U26C U31C C39U, the self-cleavage turned out to be 0.06.
The same measure for G22U U48C U54C: 0.05.
The same measure for A21U C40U A45U: 0.08; for A21U C50A G53C U76A A77G: 0.07; for C23G U31A U51C A56G A64G: 0.06.
With C23U C39A U60C U69A, the self-cleavage was determined as 0.07.
As for A21U U25C A28G U43A U54C U78A, the figure is 0.05; as for C23A A47G G63U, 0.2.
As for G22A U54A A56U U67A, the figure is 0.16; as for C23G A28G U51A U72A G73A, 0.05; as for C23U U26C A28U G70C, 0.14.
In the case of A21U A57G U58C, the self-cleavage turned out to be 0.13.
Turning to A21G U76C A77U, the self-cleavage stood at 0.75.
G22C G30A A64G U69C A75G C81A: the self-cleavage was found to be 0.08.
On to G22C A28G A35U A47U U48C U69C U72C, for which the self-cleavage was found to be 0.05.
The same measure for A21U U43C U69C U72C: 0.16; for C23G U48C A56G: 0.16.
The same measure for C23U C50A U51A U67C: 0.11; for G22A A35G A45G U49C U74A: 0.06; for C23A U49A U58A U66C U72A: 0.07.
The same measure for C23A U48C U58A U69G U74C C81A: 0.05.
With C23A C40U A47G U69A, the self-cleavage is 0.11.
The same measure for C23U A35C U43C G52C U58A G63U: 0.07.
Take C23U U26A U66G: the self-cleavage turned out to be 0.07.
As for C23U U26G U51C U69C, the figure is 0.08.
Regarding A21U A35G A47G A64G, the self-cleavage turned out to be 0.64.
As for G22A U26A A56U, the figure is 0.25.
With C23U U41A A45G G73C, the self-cleavage amounted to 0.06.
As for A21G U60C A64U, the figure is 0.21.
